# Reference: the supplement of paper PMC12217912
# The list shows a part of the results. The full chains were built here from the parent and the listed change. Inactive controls read about 0.05.
# B1: TEV protease; numbered along this chain (parent)
# chain: MGESLFKGPRDYNPISSSICHLTNESDGHTTSLYGIGFGPFIITNKHLFRRNNGTLVVQSLHGVFKVKDTTTLQQHLVDGRDMIIIRMPKDFPPFPQKLKFREPQREERICLVTTNFQTKSMSSMVSDTSCTFPSGDGIFWKHWIQTKDGQCGSPLVSTRDGFIVGIHSASNFTNTNNYFTSVPKNFMELLTNQEAQQWVSGWRLNADSVLWGGHKVFMVKPEEPFQPVKEATQL
# Variants of: B1
# Assay: raw area under fraction-flipped curve 0-4 h after induction (AUC4h, not background-subtracted), DNA-recorder readout of cleavage of the substrate (dimensionless); higher = more cleavage of the substrate by the protease variant
# Conditions: temperature: 34 °C; time window: 0-4 h after rhamnose induction
# Method: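 In vivo DNA recorder in E. coli TOP10(DE3) ΔrhaA at 34 °C. Each TEVp single-site mutant (parent TEVp 0) is paired with a single-site variant of the 7-mer TEVs (canonical ENLYFQ|S). The substrate sits between flexible linkers in a Bxb1-sfGFP-TEVs-SsrA fusion, so cleavage stabilises Bxb1 and speeds flipping of a recombination array, read by NGS. The value is the raw area under the fraction-flipped curve over 0-4 h after rhamnose induction (AUC4h), with ≥20 reads per time point. It is not background-subtracted; inactive controls average about 0.047.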
# 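Further: Bxb1 expression induced with 0.2% (w/v) L-rhamnose at OD600 near 0.5, cultures sampled hourly, flipped fraction per protease–substrate barcode pair counted by paired-end Illumina sequencing.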
Variant,area with substrate EALYFQS,area with substrate ECLYFQS,area with substrate EDLYFQS,area with substrate EELYFQS,area with substrate EKLYFQS,area with substrate ELLYFQS,area with substrate EMLYFQS,area with substrate EPLYFQS,area with substrate EQLYFQS,area with substrate ESLYFQS,area with substrate EVLYFQS,area with substrate EYLYFQS,area with substrate EFLYFQS,area with substrate EGLYFQS,area with substrate EHLYFQS,area with substrate EILYFQS,area with substrate ERLYFQS,area with substrate ETLYFQS,area with substrate EWLYFQS
MGESLFKGPRDYNPISSSICHLTNESDGHTTSLYGIGFGPFIITNKHLFRRNNGTLVVQSLHGVLKVKDTTTLQQHLVDGRDMIIIRMPKDFPPFPQKLKFREPQREERICLVTTNFQTKSMSSMVSDTSCTFPSGDGIFWKHWIQTKDGQCGSPLVSTRDGFIVGIHSASNFTNTNNYFTSVPKNFMELLTNQEAQQWVSGWRLNADSVLWGGHKVFMVKPEEPFQPVKEATQL [F65L],0.0693,0.107,0.123,0.123,0.154,0.131,0.141,0.133,0.134,0.109,0.0795,0.0944,,,,,,,
MGESLFKGPRDYNPISSSICHLTNESDGHTTSLYGIGFGPFIITNKHLFRRNNGTLVVQSLHGVGKVKDTTTLQQHLVDGRDMIIIRMPKDFPPFPQKLKFREPQREERICLVTTNFQTKSMSSMVSDTSCTFPSGDGIFWKHWIQTKDGQCGSPLVSTRDGFIVGIHSASNFTNTNNYFTSVPKNFMELLTNQEAQQWVSGWRLNADSVLWGGHKVFMVKPEEPFQPVKEATQL [F65G],0.105,0.0825,0.104,0.13,0.0924,,0.094,0.0874,0.121,0.0986,0.0575,0.0905,0.0686,0.087,0.0958,0.0951,0.0854,,
MGESLFKGPRDYNPISSSICHLTNESDGHTTSLYGIGFGPFIITNKHLFRRNNGTLVVQSLHGVFKVKDTETLQQHLVDGRDMIIIRMPKDFPPFPQKLKFREPQREERICLVTTNFQTKSMSSMVSDTSCTFPSGDGIFWKHWIQTKDGQCGSPLVSTRDGFIVGIHSASNFTNTNNYFTSVPKNFMELLTNQEAQQWVSGWRLNADSVLWGGHKVFMVKPEEPFQPVKEATQL [T71E],0.103,0.0784,0.117,0.0955,0.0458,,0.0913,0.0856,0.106,0.083,0.0829,,0.114,0.0767,0.0963,0.0613,0.0811,0.102,0.0803
MGESLFKGPRDYNPISSSICHLTNESDGHTTSLYGIGFGPFIITNKHLFRRNNGTLVVQSLHGVFKVKDTTTLQKHLVDGRDMIIIRMPKDFPPFPQKLKFREPQREERICLVTTNFQTKSMSSMVSDTSCTFPSGDGIFWKHWIQTKDGQCGSPLVSTRDGFIVGIHSASNFTNTNNYFTSVPKNFMELLTNQEAQQWVSGWRLNADSVLWGGHKVFMVKPEEPFQPVKEATQL [Q75K],0.0741,0.0757,0.0862,0.0802,0.0835,0.0765,0.0805,0.0766,0.0741,0.0626,0.0448,0.0726,0.0779,,,0.0551,0.0688,,0.0673
MGESLFKGPRDYNPISSSICHLTNESDGHTTSLYGIGFGPFIITNKHLFRRNNGTLVVQSLHGVFKVKDTTTLQFHLVDGRDMIIIRMPKDFPPFPQKLKFREPQREERICLVTTNFQTKSMSSMVSDTSCTFPSGDGIFWKHWIQTKDGQCGSPLVSTRDGFIVGIHSASNFTNTNNYFTSVPKNFMELLTNQEAQQWVSGWRLNADSVLWGGHKVFMVKPEEPFQPVKEATQL [Q75F],0.0961,0.0829,0.118,0.122,0.0964,0.0957,0.12,0.0991,0.118,0.101,0.108,,,0.115,,0.078,0.0954,0.0931,0.0903
MGESLFKGPRDYNPISSSICHLTNESDGHTTSLYGIGFGPFIITNKHLFRRNNGTLVVQSLHGVFKVKETTTLQQHLVDGRDMIIIRMPKDFPPFPQKLKFREPQREERICLVTTNFQTKSMSSMVSDTSCTFPSGDGIFWKHWIQTKDGQCGSPLVSTRDGFIVGIHSASNFTNTNNYFTSVPKNFMELLTNQEAQQWVSGWRLNADSVLWGGHKVFMVKPEEPFQPVKEATQL [D69E],0.0978,0.136,0.105,0.0985,,0.0592,,0.105,0.111,0.0954,0.0875,,,0.116,0.0923,0.133,0.111,0.0856,0.121
MGESLFKGPRDYNPISSSICHLTNESDGHTTSLYGIGFGPFIITNKHLFRRNNGTLVVQSLHGVFKVKDETTLQQHLVDGRDMIIIRMPKDFPPFPQKLKFREPQREERICLVTTNFQTKSMSSMVSDTSCTFPSGDGIFWKHWIQTKDGQCGSPLVSTRDGFIVGIHSASNFTNTNNYFTSVPKNFMELLTNQEAQQWVSGWRLNADSVLWGGHKVFMVKPEEPFQPVKEATQL [T70E],0.0988,0.0677,0.0938,,0.0854,0.0715,0.0966,0.0616,0.0805,0.0077,0.0668,,0.0708,,0.0503,0.0718,0.069,0.0764,
MGESLFKGPRDYNPISSSICHLTNESDGHTTSLYGIGFGPFIITNKHLFRRNNGTLVVQSLHGVFKVKDITTLQQHLVDGRDMIIIRMPKDFPPFPQKLKFREPQREERICLVTTNFQTKSMSSMVSDTSCTFPSGDGIFWKHWIQTKDGQCGSPLVSTRDGFIVGIHSASNFTNTNNYFTSVPKNFMELLTNQEAQQWVSGWRLNADSVLWGGHKVFMVKPEEPFQPVKEATQL [T70I],0.0846,0.0755,0.0745,0.119,0.0814,0.0635,0.0696,0.118,0.0713,0.0672,,,,,0.0813,0.075,0.0057,,
MGESLFKGPRDYNPISSSICHLTNESDGHTTSLYGIGFGPFIITNKHLFRRNNGTLVVQSLHGVFLVKDTTTLQQHLVDGRDMIIIRMPKDFPPFPQKLKFREPQREERICLVTTNFQTKSMSSMVSDTSCTFPSGDGIFWKHWIQTKDGQCGSPLVSTRDGFIVGIHSASNFTNTNNYFTSVPKNFMELLTNQEAQQWVSGWRLNADSVLWGGHKVFMVKPEEPFQPVKEATQL [K66L],0.123,0.104,0.112,0.0774,0.162,0.0906,0.121,,0.109,0.125,0.1,0.0846,0.154,,0.0898,0.0867,0.0997,0.107,0.103
MGESLFKGPRDYNPISSSICHLTNESDGHTTSLYGIGFGPFIITNKHLFRRNNGTLVVQSLHGVFKVKDTTTIQQHLVDGRDMIIIRMPKDFPPFPQKLKFREPQREERICLVTTNFQTKSMSSMVSDTSCTFPSGDGIFWKHWIQTKDGQCGSPLVSTRDGFIVGIHSASNFTNTNNYFTSVPKNFMELLTNQEAQQWVSGWRLNADSVLWGGHKVFMVKPEEPFQPVKEATQL [L73I],0.158,0.0925,0.118,0.0983,0.123,0.0726,0.118,,0.108,0.0963,0.0771,,,0.0781,,,,0.0977,0.0773
MGESLFKGPRDYNPISSSICHLTNESDGHTTSLYGIGFGPFIITNKHLFRRNNGTLVVQHLHGVFKVKDTTTLQQHLVDGRDMIIIRMPKDFPPFPQKLKFREPQREERICLVTTNFQTKSMSSMVSDTSCTFPSGDGIFWKHWIQTKDGQCGSPLVSTRDGFIVGIHSASNFTNTNNYFTSVPKNFMELLTNQEAQQWVSGWRLNADSVLWGGHKVFMVKPEEPFQPVKEATQL [S60H],0.124,0.149,0.125,0.142,0.0965,0.0803,0.152,0.121,0.113,0.107,0.105,,,0.144,0.106,,0.115,0.11,
MGESLFKGPRDYNPISSSICHLTNESDGHTTSLYGIGFGPFIITNKHLFRRNNGTLVVQKLHGVFKVKDTTTLQQHLVDGRDMIIIRMPKDFPPFPQKLKFREPQREERICLVTTNFQTKSMSSMVSDTSCTFPSGDGIFWKHWIQTKDGQCGSPLVSTRDGFIVGIHSASNFTNTNNYFTSVPKNFMELLTNQEAQQWVSGWRLNADSVLWGGHKVFMVKPEEPFQPVKEATQL [S60K],0.105,0.0651,0.0945,0.105,0.0726,,0.0644,0.0991,,0.108,,,,0.0687,,0.071,0.08,0.118,
MGESLFKGPRDYNPISSSICHLTNESDGHTTSLYGIGFGPFIITNKHLFRRNNGTLVVQSLAGVFKVKDTTTLQQHLVDGRDMIIIRMPKDFPPFPQKLKFREPQREERICLVTTNFQTKSMSSMVSDTSCTFPSGDGIFWKHWIQTKDGQCGSPLVSTRDGFIVGIHSASNFTNTNNYFTSVPKNFMELLTNQEAQQWVSGWRLNADSVLWGGHKVFMVKPEEPFQPVKEATQL [H62A],0.1,0.0867,0.118,,,,0.0989,,0.157,0.0891,0.0919,0.0858,0.105,,0.104,,0.0848,0.111,0.0965
MGESLFKGPRDYNPISSSICHLTNESDGHTTSLYGIGFGPFIITNKHLFRRNNGTLVVISLHGVFKVKDTTTLQQHLVDGRDMIIIRMPKDFPPFPQKLKFREPQREERICLVTTNFQTKSMSSMVSDTSCTFPSGDGIFWKHWIQTKDGQCGSPLVSTRDGFIVGIHSASNFTNTNNYFTSVPKNFMELLTNQEAQQWVSGWRLNADSVLWGGHKVFMVKPEEPFQPVKEATQL [Q59I],0.116,0.12,0.12,0.0913,,0.0897,0.104,0.114,0.155,0.104,0.0863,,0.102,,,0.0906,0.1,0.132,0.0837
MGESLFKGPRDYNPISSSICHLTNESDGHTTSLYGIGFGPFIITNKHLFRRNNGSLVVQSLHGVFKVKDTTTLQQHLVDGRDMIIIRMPKDFPPFPQKLKFREPQREERICLVTTNFQTKSMSSMVSDTSCTFPSGDGIFWKHWIQTKDGQCGSPLVSTRDGFIVGIHSASNFTNTNNYFTSVPKNFMELLTNQEAQQWVSGWRLNADSVLWGGHKVFMVKPEEPFQPVKEATQL [T55S],0.122,0.113,0.129,0.13,0.0757,,0.1,,0.102,0.107,0.109,,,0.0834,0.109,0.1,0.11,0.117,0.108
MGESLFKGPRDYNPISSSICHLTNESDGHTTSLYGIGFGPFIITNKHLFRRNNGTLVVQSWHGVFKVKDTTTLQQHLVDGRDMIIIRMPKDFPPFPQKLKFREPQREERICLVTTNFQTKSMSSMVSDTSCTFPSGDGIFWKHWIQTKDGQCGSPLVSTRDGFIVGIHSASNFTNTNNYFTSVPKNFMELLTNQEAQQWVSGWRLNADSVLWGGHKVFMVKPEEPFQPVKEATQL [L61W],0.101,0.0758,0.117,0.102,0.0954,0.0939,0.121,0.107,0.105,0.0986,,0.0887,,0.0731,,0.105,0.0863,0.0826,0.0819
MGESLFKGPRDYNPISSSICHLTNESDGHTTSLYGIGFGPFIITNKHLFRRNNGTLVVQSHHGVFKVKDTTTLQQHLVDGRDMIIIRMPKDFPPFPQKLKFREPQREERICLVTTNFQTKSMSSMVSDTSCTFPSGDGIFWKHWIQTKDGQCGSPLVSTRDGFIVGIHSASNFTNTNNYFTSVPKNFMELLTNQEAQQWVSGWRLNADSVLWGGHKVFMVKPEEPFQPVKEATQL [L61H],0.118,0.11,0.119,0.129,0.115,0.109,0.107,0.176,0.12,0.0965,0.109,0.098,,0.0861,0.0639,0.0939,,0.129,0.102
